Reference: the supplement of paper PMC10126150
Values marked as one replicate rest on one cluster of the flow cell; about a third of the high ones do not repeat.

test system: ATP; assay: switch fluorescence ratio, 500 uM ATP over buffer (Cy3 cluster intensity, sum of 5 cycles each) (fold (ratio)); higher = stronger signal-on switching upon ATP binding; sequences stand for … in TCGTCGGCAGCGTCAGATGTGTATAAGAGACAGTTTTTTTTTTTTTTTTTTTTTTTTT…TC; conditions: aptamer strand: ATP DNA aptamer (quencher-CACCTGGGGGAGTATTGCGGAGGAAGG + anchor), 100 nM annealed; ATP concentration: 500 uM; one replicate
Summary of the method: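 Between each of five buffer/ATP cycles, the flow-cell was stripped with NaOH and re-annealed. Each cycle imaged Cy3-labelled switching-strand clusters, annealed to 100 nM quencher-labelled ATP aptamer on a modified Illumina MiSeq flow-cell, first in selection buffer and then after 15 min with 500 uM ATP at 22 °C. The fluorescence ratio is summed target-cycle over summed buffer-cycle Cy3 intensity per cluster, averaged per switch-domain sequence, with clusters outside 100-1000 RFU excluded.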
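Note: ATP exposure 15 min at 22 °C before imaging.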

Row | Sequence | switch fluorescence ratio
1 | TCCGCGTCTC | 2.57
2 | TCCGCTCCAT | 1.56
3 | TCCGGATGTT | 0.986
4 | TCCGGGACCC | 1.25
5 | TCCGGGGTAT | 1.06
6 | TCCGGGTGGC | 1.4
7 | TCCGGGTTCC | 1.01
8 | TCCGGTCAAC | 1.54
9 | TCCGGTGCCT | 1.18
10 | TCCGGTTTAT | 1.04
11 | TCCGTAGTTA | 5.48
12 | TCCGTATATA | 1.79
13 | TCCGTGAG | 2.69
14 | TCCGTGCGCT | 3.77
15 | TCCGTGGCGA | 1.73
16 | TCCGTGGGTC | 1.23
17 | TCCGTGTTGA | 0.993
18 | TCCGTTTAGG | 1.01
19 | TCCTACTGGT | 1.03
20 | TCCTACTTAA | 1.07
21 | TCCTAGCAT | 2.23
22 | TCCTAGGA | 1.06
23 | TCCTAGGTAG | 1.09
24 | TCCTAGTGTT | 1.01
25 | TCCTATATGA | 0.978
26 | TCCTCACACG | 1.34

Row | Sequence | switch fluorescence ratio
27 | TCCTCACAG | 1.48
28 | TCCTCAGGCT | 1.39
29 | TCCTCATTAG | 1.2
30 | TCCTCCTCTA | 6.46
31 | TCCTCGATGT | 1.02
32 | TCCTCTGGTC | 1.92
33 | TCCTGGTGGT | 1.08
34 | TCCTGTCATT | 1.01
35 | TCCTGTCTAA | 0.995
36 | TCCTGTTCGT | 1
37 | TCCTGTTGTT | 1.15
38 | TCCTTCGTAT | 3.76
39 | TCCTTGAGGG | 0.994
40 | TCCTTGGTCT | 0.999
41 | TCGAAAACT | 0.972
42 | TCGAACGCGC | 2.19
43 | TCGAACTTAT | 1.02
44 | TCGAAGGACC | 1.05
45 | TCGAAGGCT | 1.03
46 | TCGAATCATT | 1.01
47 | TCGACAAATT | 0.99
48 | TCGACATGTT | 1
49 | TCGACCGCCG | 1.03
50 | TCGACCTGT | 1
51 | TCGACTATGG | 0.964
52 | TCGAGAAGGA | 0.957

Row | Sequence | switch fluorescence ratio
53 | TCGAGGACTG | 0.938
54 | TCGAGGAGAC | 1.06
55 | TCGAGGGAAT | 1.76
56 | TCGAGGGACG | 1.06
57 | TCGAGTATGC | 1.05
58 | TCGATAAGT | 1.02
59 | TCGATATCCT | 1.06
60 | TCGATCAGAC | 1.18
61 | TCGATGAGCC | 0.971
62 | TCGATGAGG | 1.05
63 | TCGATGTGCT | 1.04
64 | TCGATTCGTA | 0.994
65 | TCGATTTCGC | 1.07
66 | TCGCAAACTT | 3.63
67 | TCGCATCCCA | 1.65
68 | TCGCCATCGG | 1
69 | TCGCCGAGCT | 1.06
70 | TCGCCGCTTC | 1.68
71 | TCGCCGGATA | 1
72 | TCGCCGTACC | 1.05
73 | TCGCCTGACA | 1.01
74 | TCGCGCATGT | 1.13
75 | TCGCGCGCGG | 0.957
76 | TCGCGGAGTG | 0.947
77 | TCGCGGCGTC | 1.09
78 | TCGCGGGGTA | 1.04

Row | Sequence | switch fluorescence ratio
79 | TCGCTCAATT | 1.08
80 | TCGCTCACTA | 1.03
81 | TCGCTCACTG | 1.05
82 | TCGCTCATTG | 0.984
83 | TCGCTGCGAG | 1.05
84 | TCGCTGGAAA | 0.962
85 | TCGCTGGTCA | 0.943
86 | TCGCTGGTGG | 1.03
87 | TCGCTGTCTC | 1.11
88 | TCGCTGTGCT | 1.11
89 | TCGCTTGGAA | 1.01
90 | TCGGAAAGAA | 1.03
91 | TCGGAACTGC | 0.962
92 | TCGGAATTCT | 1.09
93 | TCGGACAGAA | 1.02
94 | TCGGACTAAC | 1.13
95 | TCGGACTAAT | 1.24
96 | TCGGACTTTG | 0.919
97 | TCGGAGTAC | 1.36
98 | TCGGCAACAA | 1.33
99 | TCGGCACACA | 1.04
100 | TCGGCATATT | 1.02
101 | TCGGCATTCC | 1.76
102 | TCGGCGCCAG | 0.972
103 | TCGGCGTTTT | 1.22
104 | TCGGCTGGAC | 1.34

Row | Sequence | switch fluorescence ratio
105 | TCGGCTGGTG | 1.03
106 | TCGGCTTAC | 1.1
107 | TCGGGAATGC | 1.7
108 | TCGGGACTAG | 1.15
109 | TCGGGAGCAC | 2.52
110 | TCGGGATTCT | 1.1
111 | TCGGGGATC | 0.977
112 | TCGGGGCTTG | 1
113 | TCGGGGGACA | 0.996
114 | TCGGGTCGT | 0.98
115 | TCGGGTGCAA | 1.68
116 | TCGGGTGGAG | 0.931
117 | TCGGGTGGC | 0.951
118 | TCGGGTTGCT | 0.926
119 | TCGGGTTTAA | 0.983
120 | TCGGTAATTT | 1.01
121 | TCGGTACGAA | 1
122 | TCGGTAGAGA | 1.05
123 | TCGGTATAAT | 1.22
124 | TCGGTATGTT | 0.98
125 | TCGGTCGTGT | 0.985
126 | TCGGTCTGAG | 0.984
127 | TCGGTCTTCG | 1.02
128 | TCGGTG | 0.986
129 | TCGGTGAACT | 0.998
130 | TCGGTGCAGA | 1.07

Row | Sequence | switch fluorescence ratio
131 | TCGGTGCGCG | 0.947
132 | TCGGTGGTGC | 1
133 | TCGGTGTAAT | 0.982
134 | TCGGTGTACA | 0.962
135 | TCGTAAAAT | 1.03
136 | TCGTAATAAT | 1.39
137 | TCGTAATGG | 1.46
138 | TCGTACAAAC | 1.3
139 | TCGTACCGGA | 1.06
140 | TCGTAGAAGA | 0.979
141 | TCGTAGAAGT | 1.01
142 | TCGTATTTCT | 0.993
143 | TCGTATTTGT | 1
144 | TCGTCGAGTT | 0.989
145 | TCGTCGGCGG | 1.02
146 | TCGTCGTCTG | 1.07
147 | TCGTCTCGC | 0.992
148 | TCGTGAGAGC | 0.999
149 | TCGTGAGAGT | 1.04
150 | TCGTGAGGCA | 1.03
151 | TCGTGATA | 1.07
152 | TCGTGATCGT | 1.01
153 | TCGTGATGGT | 1.04
154 | TCGTGCGGGC | 1.06
155 | TCGTGCGTGG | 0.959
156 | TCGTGCTTGC | 0.956

Row | Sequence | switch fluorescence ratio
157 | TCGTGTCATG | 0.952
158 | TCGTGTCTCT | 1.01
159 | TCGTGTTTAA | 0.995
160 | TCGTTAAGGG | 1.12
161 | TCGTTATGAC | 0.996
162 | TCGTTCTCTC | 1.01
163 | TCGTTGAAAG | 1
164 | TCGTTGTGAA | 1.04
165 | TCGTTTTATC | 1.03
166 | TCTAAACGC | 1.03
167 | TCTAACGCTT | 1.28
168 | TCTAATCAAG | 0.982
169 | TCTAATGCGG | 0.988
170 | TCTAATTACT | 1.02
171 | TCTAATTCTC | 1.06
172 | TCTACCCCAG | 3.67
173 | TCTACCTAAT | 1.05
174 | TCTACGACGG | 1.03
175 | TCTACGGCAC | 2.06
176 | TCTACTGGTG | 1.23
177 | TCTACTGTG | 1.06
178 | TCTAGCCTTG | 1.01
179 | TCTAGGGACG | 0.942
180 | TCTAGGGGT | 1.02
181 | TCTATAAACG | 0.995
182 | TCTATCCT | 1.07

Row | Sequence | switch fluorescence ratio
183 | TCTATCGGTC | 1.04
184 | TCTATGAGA | 1.06
185 | TCTATGCTGA | 1.66
186 | TCTATGGGAT | 1.03
187 | TCTATGGTTG | 0.902
188 | TCTATTTATA | 1.01
189 | TCTCAACACG | 1
190 | TCTCAATTTT | 0.996
191 | TCTCACAATT | 1.13
192 | TCTCACCATT | 1.03
193 | TCTCAGACAG | 1.01
194 | TCTCAGATTA | 1
195 | TCTCATACGC | 1.29
196 | TCTCATCGAT | 1.01
197 | TCTCATGCAA | 1.34
198 | TCTCCAATCT | 1.18
199 | TCTCCGGCGT | 1.81
200 | TCTCCTCCCG | 1.77
201 | TCTCGATTG | 1.01
